The source of these data is the antibiotic and cytotoxicity screens of Wong et al. (2023).

The list shows a part of the results.

This assay concerns HepG2. In words: cytotoxicity call (relative viability < 0.9). As to conditions: 10 µM.
With `COc1ccc(S(=O)(=O)Nc2ccc3c(c2)C(=O)N([C@@H](C)CO)C[C@H](C)[C@@H](CN(C)Cc2ccc4c(c2)OCO4)OCCCC[C@@H](C)O3)cc1`, the cytotoxicity call is “inactive”.
For `C[C@@H]1CCCCO[C@H](CN(C)C(=O)Nc2cccc3ccccc23)[C@H](C)CN([C@H](C)CO)C(=O)c2cc(NC(=O)Cc3ccccc3)ccc2O1`, the cytotoxicity call is “active”.
Consider `Cc1ccc(C(=O)O)c(=O)[nH]1`, for which the cytotoxicity call was “inactive”.
As for `O=C(C[C@H]1C[C@@H]2c3cc(NC(=O)NC4CCCC4)ccc3O[C@@H]2[C@@H](CO)O1)NCc1ccc2c(c1)OCO2`, the cytotoxicity call is “inactive”.
Regarding `COc1ccc(NC(=O)N(C)C[C@@H]2OCCCC[C@H](C)Oc3ccc(NS(=O)(=O)c4ccc(C)cc4)cc3C(=O)N([C@H](C)CO)C[C@H]2C)cc1`, the cytotoxicity call was “inactive”.
With `COc1ccc2c3c([nH]c2c1)[C@H](CO)N(C[C@]13CCN(CC1)Cc1ccccc1)S(=O)(=O)c1cn(cn1)C`, the cytotoxicity call was “inactive”.
The result for `C[C@H]1CN([C@@H](C)CO)S(=O)(=O)c2ccc(C#Cc3ccccc3F)cc2O[C@@H]1CN(C)CC1CCOCC1` reads “inactive”; that for `Cc1noc(C)c1NC(=O)Nc1ccc2c(c1)C(=O)N([C@@H](C)CO)C[C@@H](C)[C@@H](CN(C)Cc1ccc(C(F)(F)F)cc1)OCCCC[C@H](C)O2`, “inactive”; that for `Cc1cnc(N2C[C@H]3OCCN(S(=O)(=O)N(C)C)[C@H]3C2)nc1`, “inactive”.
On to `FC(F)(F)c1nnc2n1CCNC2`, for which the cytotoxicity call was “inactive”.
The result for `C[C@@H]1CN([C@@H](C)CO)S(=O)(=O)c2ccc(-c3cncnc3)cc2O[C@H]1CN(C)C(=O)CN(C)C` reads “inactive”; that for `O=C(C[C@H]1CC[C@@H](NC(=O)Nc2ccc3c(c2)OCO3)[C@H](CO)O1)NCCCN1CCOCC1`, “inactive”.
With `C[C@H](CO)N1C[C@H](C)[C@@H](CN(C)S(=O)(=O)c2cn(C)cn2)Oc2ccc(NC(=O)CCC(F)(F)F)cc2CC1=O`, the cytotoxicity call was “inactive”.
Turning to `O=C(Cn1cnnn1)NS(=O)(=O)c1ccccc1`, the cytotoxicity call is “inactive”.
The result for `CC(C)NC(=O)Nc1ccc2c(c1)C(=O)N([C@H](C)CO)C[C@H](C)[C@H](CN(C)C(=O)NC1CCCCC1)O2` reads “inactive”.
Consider `COc1ccc(NC(=O)N(C)C[C@H]2OCCCC[C@@H](C)Oc3ccc(NS(=O)(=O)c4cccs4)cc3C(=O)N([C@@H](C)CO)C[C@H]2C)cc1`, for which the cytotoxicity call is “inactive”.
With `CO[C@@]12[C@@H]3N[C@@H]3CN1C1=C(C(=O)C(N)=C(C)C1=O)[C@@H]2COC(N)=O` the entry was “active”; with `O=C(CCCCCNC(=O)OCc1ccc(CO[C@H]2C[C@@H](c3ccc(C(F)(F)F)cc3)C=C(C(=O)N3CCN(Cc4ccccc4)CC3)O2)cc1)NO`, “inactive”; with `CCCN(C)C[C@H]1OCCCC[C@H](C)Oc2ccc(NC(=O)C3CCCCC3)cc2C(=O)N([C@@H](C)CO)C[C@H]1C`, “inactive”.
As to `COc1ccc(S(=O)(=O)Nc2ccc3c(c2)CC(=O)N([C@H](C)CO)C[C@@H](C)[C@H](CN(C)S(=O)(=O)c2ccc(C)cc2)O3)cc1`, the cytotoxicity call was “inactive”.
With `C[C@@H]1CN([C@@H](C)CO)C(=O)c2cc(NC(=O)Cc3ccccc3)ccc2O[C@@H](C)CCCCO[C@H]1CN(C)C(=O)c1ccccc1`, the cytotoxicity call is “inactive”.
As to `C[C@@H]1CCCCO[C@H](CN(C)Cc2ccccc2)[C@@H](C)CN([C@@H](C)CO)C(=O)c2cc(NC(=O)NC3CCCCC3)ccc2O1`, the cytotoxicity call was “active”.
For `Cc1noc(C)c1S(=O)(=O)N(C)C[C@H]1Oc2ccc(NC(=O)Cc3ccccc3)cc2CC(=O)N([C@H](C)CO)C[C@@H]1C`, the cytotoxicity call is “inactive”.
`NCCCCCNC(=O)[C@@H]1C[C@@H]2C(=O)NCC(=O)N2[C@@H]1c1cccc(OCCO)c1`: the cytotoxicity call was “inactive”.
Regarding `CCOC(=O)N1CCN([C@H](c2ccc(OC)cc2)c2cc(CC)sc2NC(=O)c2ccccc2)CC1`, the cytotoxicity call was “inactive”.
Regarding `CC(C)N1C[C@H](CNCc2ccc(Oc3ccccc3)cc2)Oc2c(NC(=O)c3ccncc3)cccc2C1=O`, the cytotoxicity call is “inactive”.
As to `CC(=O)O[C@@H]1C[C@H]2[C@@]3(C)CC[C@@H](OC(=O)CC(=O)O)C(C)(C)[C@@H]3CC[C@@]2(C)[C@]2(C)CC[C@](O)([C@]3(C)CC[C@H](C(C)(C)O)O3)[C@@H]12`, the cytotoxicity call was “inactive”.
With `COc1ccc(cc1)CN1CC[C@]2(CC1)CN([C@H](CO)c1[nH]c3cc(ccc3c12)OC)C(=O)CN(C)C`, the cytotoxicity call was “inactive”.
As to `CC1(C)C(=O)C=CC2(C)C1C=CC1(C)C2CCC2(C)C(c3ccoc3)OC(=O)C3OC312` (stereo not given), the cytotoxicity call was “active”.
Take `COc1ccc(S(=O)(=O)N(C)C[C@H]2Oc3c(NS(=O)(=O)c4cccs4)cccc3C(=O)N([C@@H](C)CO)C[C@H]2C)cc1`: the cytotoxicity call is “inactive”.
For the molecule `COc1ccc(NC(=O)N[C@@H]2CC[C@H](CCNC(=O)CN3CCOCC3)O[C@H]2CO)cc1`, the cytotoxicity call is “inactive”.
On to `CNC[C@@H]1OCCCC[C@H](C)Oc2ccc(NC(=O)c3ccncc3)cc2C(=O)N([C@H](C)CO)C[C@H]1C`, for which the cytotoxicity call was “inactive”.
Regarding `C[C@H](CO)N1C[C@H](C)[C@H](CN(C)Cc2ccccc2)Oc2cc(C#CC(C)(C)O)ccc2S1(=O)=O`, the cytotoxicity call is “inactive”.
For `C[C@@H]1CN([C@@H](C)CO)C(=O)Cc2cc(NC(=O)Cn3cnnn3)ccc2O[C@@H]1CN(C)C(=O)Nc1ccc(F)cc1`, the cytotoxicity call is “inactive”.
The result for `C[C@@H]1CN([C@@H](C)CO)C(=O)c2cc(NS(=O)(=O)c3cn(C)cn3)ccc2O[C@@H](C)CCCCO[C@H]1CN(C)C(=O)c1ccncc1` reads “inactive”; that for `C[C@@H]1CN([C@H](C)CO)C(=O)c2cccc(NC(=O)C3CCOCC3)c2O[C@H]1CN(C)C(=O)Nc1ccccc1`, “inactive”; that for `CC1COc2c(N3CCN(C)CC3)c(F)cc3c(=O)c(C(=O)O)cn1c23` (stereo not given), “inactive”.
Consider `CCCC(=O)Nc1ccc2c(c1)OC[C@@H](C)N(S(=O)(=O)c1cn(C)cn1)C[C@H](C)[C@@H](OC)CN(C)C2=O`, for which the cytotoxicity call was “inactive”.
Take `Cc1ccc(S(=O)(=O)Nc2ccc3c(c2)CC(=O)N([C@@H](C)CO)C[C@@H](C)[C@@H](CN(C)S(=O)(=O)c2c(C)noc2C)O3)cc1`: the cytotoxicity call was “inactive”.
With `CC(C)(C)[S@@](=O)N1Cc2cc(C(=O)NCCc3ccncc3)nc(-c3cccc(-c4ccccc4)c3)c2[C@H]1CCO`, the cytotoxicity call is “inactive”.
